Test results: the antibiotic and cytotoxicity screens of Wong et al. (2023)
This is one part of the list.

test system: HepG2; test: cytotoxicity call (relative viability < 0.9); conditions: 10 µM

Compound	cytotoxicity call
CC(=O)C1CCC2C3CCC4=CC(=O)CCC4(C)C3CCC12C (centres undefined)	inactive
CC12CCC(=O)C=C1C=CC1C2CCC2(C)C1CCC21CCC(=O)O1 (centres undefined)	inactive
COc1c(-c2coc3cc4c(cc3c2=O)CC(O)C(C)(C)O4)ccc2c1C=CC(C)(C)O2 (centres undefined)	active
O=C(O)C[C@@H]1CC[C@@H]2[C@H](COC[C@@H](O)CN2S(=O)(=O)c2ccc(F)cc2)O1	inactive
C[C@H]1CN(C(=O)CSc2nnc3c4ccccc4n(Cc4cccc(Cl)c4)c3n2)CCN1C(=O)c1ccccc1F	inactive
CCCNC(=O)N1C[C@H](C)[C@@H](OC)CN(C)C(=O)c2ccc(NS(=O)(=O)CC(F)(F)F)cc2OC[C@@H]1C	inactive
O=C(CCCCCC(=O)N/N=C/[C@H](O)[C@@H](O)[C@H](O[C@@H]1O[C@H](CO)[C@H](O)[C@H](O)[C@H]1O)[C@H](O)CO)NO	inactive
O=C(O)c1cc2ccccc2c(Cc2c(O)c(C(=O)O)cc3ccccc23)c1O.OCCOCCN1CCN(C(c2ccccc2)c2ccc(Cl)cc2)CC1	inactive
C[C@@H]1CCCCO[C@H](CN(C)S(=O)(=O)c2ccccc2)[C@H](C)CN([C@@H](C)CO)C(=O)c2cc(NC(=O)Nc3cccc4ccccc34)ccc2O1	inactive
CC(C)NC(=O)Nc1ccc2c(c1)C(=O)N([C@@H](C)CO)C[C@@H](C)[C@@H](CN(C)S(=O)(=O)c1cccs1)O2	inactive
CCCN(C)C[C@H]1OCCCC[C@@H](C)Oc2ccc(NC(=O)Nc3ccccc3)cc2C(=O)N([C@H](C)CO)C[C@@H]1C	inactive
C[C@@H]1CN([C@@H](C)CO)C(=O)c2cc(NS(C)(=O)=O)ccc2O[C@@H]1CN(C)C(=O)NC1CCCCC1	inactive
C[C@@H]1CN([C@@H](C)CO)C(=O)c2cc(NC(=O)Nc3cccc4ccccc34)ccc2O[C@@H](C)CCCCO[C@@H]1CN(C)C	inactive
C[C@H](CO)N1C[C@H](C)[C@H](CN(C)Cc2ccc(F)cc2)OCc2ccccc2-c2c(n(C)c3ccccc23)C1=O	inactive
CCOC(=O)N[C@H]1CCS(=O)(=O)C1	inactive
C[C@@H]1CN([C@H](C)CO)C(=O)Cc2cc(NS(=O)(=O)c3cn(C)cn3)ccc2O[C@@H]1CN(C)C(=O)Nc1ccc(F)cc1	inactive
C[C@H]1CN([C@@H](C)CO)S(=O)(=O)c2ccc(C#CCN(C)C)cc2O[C@H]1CN(C)Cc1ccncc1	inactive
CC[C@H](C)[C@@H]([C@@H](CC(=O)N1CCC[C@H]1[C@H](OC)[C@@H](C)C(=O)N[C@@H](Cc1ccccc1)c1nccs1)OC)N(C)C(=O)[C@@H](NC(=O)[C@H](C(C)C)N(C)C)C(C)C	active
CC(C)N[C@H]1CCS(=O)(=O)C1	inactive
CC(C)NC(=O)Nc1cccc2c1O[C@@H](CN(C)C(=O)Nc1ccc3c(c1)OCO3)[C@@H](C)CN([C@H](C)CO)C2=O	inactive

Compound	cytotoxicity call
COc1ccc(S(=O)(=O)N(C)C[C@H]2Oc3ccc(NS(=O)(=O)c4c(C)noc4C)cc3CC(=O)N([C@@H](C)CO)C[C@@H]2C)cc1	inactive
C[C@@H]1CCCCO[C@H](CN(C)C(=O)Nc2ccccc2)[C@@H](C)CN([C@@H](C)CO)C(=O)c2cc(NC(=O)C3CCCCC3)ccc2O1	inactive
CCN(CC)S(=O)(=O)c1nnc[nH]1	inactive
C[C@@H]1CCCCO[C@@H](CN(C)C(=O)Nc2ccc(F)cc2)[C@H](C)CN([C@@H](C)CO)C(=O)c2cc(NS(=O)(=O)c3ccc(Cl)cc3)ccc2O1	inactive
C[C@@H]1CCCCO[C@@H](CN(C)C(=O)Nc2ccc(F)cc2)[C@@H](C)CN([C@H](C)CO)C(=O)c2cc(NC(=O)CCCCCC(=O)Nc3ccccc3N)ccc2O1	inactive
CN(C)CC(=O)N[C@H]1CC[C@@H](CCn2cc(CN(C)C)nn2)O[C@@H]1CO	inactive
C[C@@H]1CN([C@@H](C)CO)C(=O)c2cc(NS(=O)(=O)c3cn(C)cn3)ccc2O[C@@H]1CN(C)CC1CC1	inactive
C[C@H]1CN([C@@H](C)CO)C(=O)c2cccc(NC(=O)c3nc4ccccc4s3)c2O[C@H]1CN(C)C(=O)Nc1ccc(C(F)(F)F)cc1	active
CNC(=O)C[C@@H]1CC[C@@H]2[C@H](COC[C@@H](O)CN2C(=O)Nc2ccc3c(c2)OCO3)O1	inactive
C[C@H](CO)N1C[C@H](C)[C@@H](CN(C)Cc2ccc3c(c2)OCO3)Oc2ccc(NC(=O)CCCN(C)C)cc2CC1=O	inactive
C[C@H](CO)N1C[C@H](C)[C@@H](CN(C)CC2CCCCC2)Oc2c(NC(=O)Nc3ccc(F)cc3)cccc2C1=O	inactive
CN(C)Cc1cn(CC[C@H]2CC[C@H](NS(=O)(=O)c3ccccc3)[C@H](CO)O2)nn1	inactive
Cc1noc(C)c1S(=O)(=O)Nc1cccc2c1O[C@H](CN(C)C(=O)NC(C)C)[C@H](C)CN([C@H](C)CO)C2=O	inactive
C[C@@H]1CN([C@H](C)CO)C(=O)c2cc(NC(=O)NC3CCCCC3)ccc2O[C@@H]1CN(C)C(=O)Nc1ccc(C(F)(F)F)cc1	inactive
C[C@H](CO)N1C[C@H](C)[C@@H](CN(C)Cc2ccc(Cl)c(Cl)c2)Oc2ccc(NC(=O)Nc3cccc4ccccc34)cc2C1=O	inactive
Cc1ccc(S(=O)(=O)N(C)C[C@H]2OCCCC[C@H](C)Oc3ccc(NS(C)(=O)=O)cc3C(=O)N([C@H](C)CO)C[C@@H]2C)cc1	inactive
C[C@@H]1CCCCO[C@H](CN(C)CC2CCCCC2)[C@@H](C)CN([C@H](C)CO)C(=O)c2cc(NC(=O)CCCCCC(=O)Nc3ccccc3N)ccc2O1	inactive
C[C@H]1CN([C@@H](C)CO)C(=O)c2cccc(NS(=O)(=O)c3ccc(F)cc3)c2O[C@@H]1CN(C)S(=O)(=O)c1cn(C)cn1	inactive
C[C@H]1CN([C@@H](C)CO)C(=O)Cc2cc(NC(=O)Cn3cnnn3)ccc2O[C@@H]1CN(C)CC1CCCCC1	inactive
